Data taken from PubChem BioAssay AID720709 (National Center for Advancing Translational Sciences (NCATS), 2013).
About 520 (0.14%) of roughly 360,000 compounds were called active. The inconclusive results got no clear call from the source; some entries with a clear call stand among them for comparison. The call rests on the fitted dose curve; in most records, active means well fitted inhibition curve with a large enough effect; inconclusive means small, poorly fitted or top-dose-only effect; inactive means no such curve, though single readings can be large or run the other way. No potency is given beside an inconclusive call; the fits are too rough.

target: Rap guanine nucleotide exchange factor 3 (Homo sapiens) (UniProt O95398); experiment: qHTS for Antagonist of cAMP-regulated guanine nucleotide exchange factor 3 (EPAC1): primary screen; settings: EPAC1 GEF assay, Rap1b-BODIPY-GDP exchange fluorescence; activity change, negative = inhibition: at 115 µM (top of the series); further: nearly all actives have a fitted effect of over 50% in size;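 on activity change, negative = inhibition: plate controls were vehicle for no effect and positive control for full effect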
Potency means the concentration at half of the fitted maximal effect; tags describe the fitted curve by direction and shape.

UniProt O95398, sequence (O95398 whole entry, looked up): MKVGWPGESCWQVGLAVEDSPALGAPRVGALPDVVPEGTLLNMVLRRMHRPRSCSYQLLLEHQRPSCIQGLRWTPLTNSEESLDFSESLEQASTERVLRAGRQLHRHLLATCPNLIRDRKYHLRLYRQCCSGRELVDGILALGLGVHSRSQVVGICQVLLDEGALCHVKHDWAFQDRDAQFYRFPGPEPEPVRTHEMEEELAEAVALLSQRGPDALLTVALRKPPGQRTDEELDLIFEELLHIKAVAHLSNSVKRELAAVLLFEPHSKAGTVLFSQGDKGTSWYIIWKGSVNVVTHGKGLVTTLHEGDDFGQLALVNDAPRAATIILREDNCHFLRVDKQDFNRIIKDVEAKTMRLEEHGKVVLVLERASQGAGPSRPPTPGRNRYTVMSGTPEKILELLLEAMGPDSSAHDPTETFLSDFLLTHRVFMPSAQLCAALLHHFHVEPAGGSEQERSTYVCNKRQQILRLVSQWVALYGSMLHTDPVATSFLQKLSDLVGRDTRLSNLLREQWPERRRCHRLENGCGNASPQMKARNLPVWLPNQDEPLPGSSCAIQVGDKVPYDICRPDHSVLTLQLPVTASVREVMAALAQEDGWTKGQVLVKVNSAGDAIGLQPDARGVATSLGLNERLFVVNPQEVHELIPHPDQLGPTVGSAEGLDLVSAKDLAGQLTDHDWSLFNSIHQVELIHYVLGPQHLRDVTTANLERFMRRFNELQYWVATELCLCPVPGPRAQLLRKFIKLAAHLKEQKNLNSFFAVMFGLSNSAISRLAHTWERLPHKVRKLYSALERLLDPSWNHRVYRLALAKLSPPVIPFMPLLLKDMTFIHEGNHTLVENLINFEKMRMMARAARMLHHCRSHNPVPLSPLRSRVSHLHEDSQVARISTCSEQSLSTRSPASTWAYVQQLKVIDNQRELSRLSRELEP

SMILES	Potency	activity change, negative = inhibition
O=C(OC(C(=O)Nc1ccc(Cl)cc1C(F)(F)F)c1ccccc1)c1c(Cl)cccc1Cl (stereo unspecified)	inconclusive [inhibitor, partial curve]	
COc1cc(/C=C2\SC(=S)N(NC(=O)c3ccc(O)c(OC)c3)C2=O)ccc1O	inconclusive [inhibitor, partial curve]	
O=C(CSc1ccc(C(F)(F)F)cn1)Nc1ccccc1	inactive	
CCC(=O)OCCNc1cc(SCCC(=O)OC)c2nonc2c1[N+](=O)[O-]	inactive	
C=C1C(=O)c2sccc2C(c2ccc(OC)c(OC)c2)C1COC(C)=O (stereo unspecified)	inconclusive [inhibitor, partial curve, poor fit]	
COc1cccc(C=C2SC(=S)NC2=O)c1	inconclusive [inhibitor, partial curve]	
CC(C)(C)c1ccc(C2C(C(=O)c3ccco3)=C(O)C(=O)N2CC2CCCO2)cc1 (stereo unspecified)	inactive	
O=C(/C=C/c1ccccc1)c1ccc(NC2=NCCCS2)cc1	inactive	
Cc1cc(C)c(C)c(S(=O)(=O)N2CCCCC2C(=O)O)c1C (stereo unspecified)	inconclusive [inhibitor, single point]	
CCOC(=O)c1cnn(-c2ccccc2)c1-n1cccc1C(=O)C(=O)N(CC)CC	inconclusive [inhibitor, single point]	
CCN(c1ccccc1)S(=O)(=O)c1ccc(OC)c(NC(=O)CNCCc2ccccc2)c1	inconclusive [inhibitor, full curve]	
CN(C)c1ccc(N=Nc2ccccc2C(=O)OCC(=O)NC2CCCC2)cc1	inconclusive [inhibitor, partial curve, poor fit]	
NC(=S)NN=Cc1ccc(-c2ccc(S(=O)(=O)Nc3ncccn3)cc2)o1	inconclusive [inhibitor, partial curve]	
O=C(CCC(=O)OCc1ccc([N+](=O)[O-])cc1)Nc1ccccc1Cl	inconclusive [inhibitor, partial curve, poor fit]	
CC(=O)NN=C1CCC(c2ccccc2)CC1 (stereo unspecified)	inactive	
Cc1ccc(-n2nc(CN3CCOCC3)c(-c3ccccc3)c2N)c(C)c1	inconclusive [inhibitor, full curve, poor fit]	
O=C1/C(=C/c2cccnc2)CCC/C1=C\c1cccnc1	inactive	
Cc1ccc(-c2cnc3cccnn23)cc1F	inactive	
CN1CSC2=C(C#N)C(c3cccc(OCc4ccccc4)c3)CC(=O)N2C1 (stereo unspecified)	inconclusive [inhibitor, single point]	
CCOC(=O)C1CCCN(c2c(NCCCN3CCCC(C)C3)c(=O)c2=O)C1 (stereo unspecified)	inconclusive [inhibitor, single point]	
CCc1ccc(C(=O)COC(=O)c2cc([N+](=O)[O-])ccc2NCCO)cc1	inconclusive [inhibitor, partial curve]	
FC(F)(F)c1ccccc1NC(=S)Nc1cccc2cnccc12	inactive	

SMILES	Potency	activity change, negative = inhibition
COC(=O)[C@]12CCCCC=C1N(Cc1ccc(Cl)cc1Cl)C(=O)[C@H](CC(=O)NCCC(C)C)C2	inconclusive [inhibitor, single point]	
CCOc1ccc(NC(=O)Nc2ccccc2SC)cc1	inactive	
Cc1ccc(S(=O)(=O)CNC(=S)c2ccc3ccccc3c2)cc1	inconclusive [inhibitor, full curve, poor fit]	
CCc1nccn1S(=O)(=O)c1ccc(C)c(C)c1		inconclusive: -11.9% [inhibitor]
C[n+]1cccc2cccc([O-])c21	inactive	
Cc1csc(SC(C)C(=O)Nc2ccc3c(c2)OCCO3)n1 (stereo unspecified)	inconclusive [inhibitor, partial curve, poor fit]	
CCn1c(=O)c2c(nc(SCC(=O)N3CCC(C)CC3)n2C)n(C)c1=O	inconclusive [inhibitor, partial curve]	
Cc1cnc(C(=O)OCC(=O)NCc2ccccc2)cn1	inactive	
O=c1ccc2ccc(OCCOc3cccc(Cl)c3)cc2o1	inconclusive [inhibitor, single point]	
Cc1cccn2c(=O)c3cc(C#N)c(=N)n(CCN4CCOCC4)c3nc12	inactive	
COCCCN(C(=O)c1ccco1)c1nc(-c2cc(OC)ccc2OC)cs1	inconclusive [inhibitor, full curve]	
CCN(CC)S(=O)(=O)c1cccc(C(=O)Nc2cc(C)cc(C)c2)c1	inconclusive [inhibitor, full curve, poor fit]	
CC(C)c1ccc(/C=C/c2[nH]c(=O)[nH]c(=O)c2[N+](=O)[O-])cc1		inconclusive: -30.8% [inhibitor]
CC(C)(C)OC(=O)[C@H](Cc1ccccc1)NC(=O)c1nc[nH]c1C(=O)N[C@@H](Cc1ccccc1)C(=O)OC(C)(C)C	inconclusive [inhibitor, full curve]	
CCN(CC(=O)Nc1ccc(OC)cc1)C(=O)Cc1cccs1	inconclusive [inhibitor, partial curve]	
Cc1noc2ncnc(Oc3cc(Cl)ccc3Cl)c12	inconclusive [inhibitor, single point]	
CCc1nnc(NC(=O)C2CC(=O)N(C3CCCCC3)C2)s1 (stereo unspecified)	inactive	
COc1ccc2c(c1)C(=O)N(c1ccccc1OC)C(=O)C2	inactive	
CCOc1ccc(Nc2nc(NCC3CCCO3)c3ccccc3n2)cc1 (stereo unspecified)	inconclusive [inhibitor, partial curve]	
CCC(C)N1CNc2c(c(=O)[nH]c(=S)n2-c2cccc(C)c2)C1 (stereo unspecified)	inconclusive [inhibitor, single point]	
CCOC(=O)C1CCN(c2nc(N)c3c(N)nc(SCC(=O)O)cc3c2C#N)CC1	inconclusive [inhibitor, partial curve]	
O=C(Cn1cc(COc2ccc(Cl)c(Cl)c2)nn1)NS(=O)(=O)c1ccccc1C(F)(F)F	inconclusive [inhibitor, partial curve]	

SMILES	Potency	activity change, negative = inhibition
COc1ccc(/C=C\c2onc(C)c2S(=O)(=O)N2CCC(C(=O)NCCC(C)C)CC2)cc1	inconclusive [inhibitor, single point]	
CCOC(=O)c1c(C)[nH]c(C)c1C(=O)COc1ncnc2ccccc12	inconclusive [inhibitor, partial curve]	
COc1ccc(OC)c2sc(N(CCN(C)C)C(=O)/C=C/c3cccs3)nc12	inconclusive [inhibitor, partial curve]	
O=C(NCCC1=CCCCC1)c1c(O)nc2ccccn2c1=O	inconclusive [inhibitor, partial curve, poor fit]	
Cc1cc(C(=O)COC(=O)c2ccc(O)cc2)c(C)n1CC1COc2ccccc2O1 (stereo unspecified)	inconclusive [inhibitor, partial curve, poor fit]	
COCC(=O)OC1CCn2c1nc1c2C(=O)C(C)=C(NC(C)=O)C1=O (stereo unspecified)	inconclusive [inhibitor, partial curve]	
Cc1ccc(NC(=O)COC(=O)Cn2c(C)csc2=O)c([N+](=O)[O-])c1	inactive	
CC(C)c1cccc(-c2csc(C(C)(O)c3ccc(F)c(F)c3)n2)c1 (stereo unspecified)	inconclusive [inhibitor, full curve]	
CC(C)=C1C(=O)NN(c2ccc(C)c(Cl)c2)C1=O	inconclusive [inhibitor, partial curve, poor fit]	
CC(C)n1c(C(F)(F)F)nc2cc(C(=O)N3CCC(O)CC3)ccc21	inconclusive [inhibitor, full curve, poor fit]	
O=C(CN(Cc1ccccc1F)S(=O)(=O)c1ccc(Cl)cc1)NCCCO	inconclusive [inhibitor, single point]	
CCCCC[C@@H](C)N1C[C@H](COCc2ccccc2)Oc2cc(N3CC[C@@H](O)C3)ccc2S1(=O)=O	inconclusive [inhibitor, single point]	
CCCN(CCC)S(=O)(=O)c1ccc(C(=O)NCc2ccc3c(c2)OCO3)cc1	inconclusive [inhibitor, single point]	
N/C(=N\OC(=O)CSc1ccccc1)c1cccc([N+](=O)[O-])c1	inactive	
CC1(C(=O)NCc2ccccc2Br)CCN1C(=O)CCc1ccc(Cl)cc1Cl (stereo unspecified)	inactive	
Cc1n[nH]c(=O)nc1NCc1ccccc1Cl	inconclusive [inhibitor, single point]	
CC(=O)OCC1=C(C(=O)OC(C)(C)C)N2C(=O)[C@@H](NC(=O)Cc3ccccc3)[C@H]2SC1	inconclusive [inhibitor, partial curve, poor fit]	
O=C(NN=Cc1c(O)ccc2ccccc12)C1CC1	inconclusive [inhibitor, full curve, poor fit]	
CCCCCC1(C)NC(=S)N(c2ccccc2)N1 (stereo unspecified)	inconclusive [inhibitor, single point]	
Cc1ccc(C)c(CSC2=NN3CCCC(=O)N=C3S2)c1	inconclusive [inhibitor, full curve, poor fit]	
Cc1c(/C=N/NC(=O)COc2ccccc2[N+](=O)[O-])c2ccccc2n1C	inconclusive [inhibitor, partial curve, poor fit]	
CCOC(=O)C1(C)CCCN1C(=O)c1sccc1C (stereo unspecified)	inconclusive [inhibitor, single point]	
